The values that follow come from the supplement of paper PMC12217912.

Sequences and labels used below:
B1: TEV protease; numbered along this chain (parent)
chain: MGESLFKGPRDYNPISSSICHLTNESDGHTTSLYGIGFGPFIITNKHLFRRNNGTLVVQSLHGVFKVKDTTTLQQHLVDGRDMIIIRMPKDFPPFPQKLKFREPQREERICLVTTNFQTKSMSSMVSDTSCTFPSGDGIFWKHWIQTKDGQCGSPLVSTRDGFIVGIHSASNFTNTNNYFTSVPKNFMELLTNQEAQQWVSGWRLNADSVLWGGHKVFMVKPEEPFQPVKEATQL

The other results are listed elsewhere or left out. Sequences were assembled here from the parent chain. Inactive controls read about 0.05.

Variants of B1 are the subject of this experiment. Put plainly: raw area under fraction-flipped curve 0-4 h after induction (AUC4h, not background-subtracted), DNA-recorder readout of cleavage of the substrate (dimensionless); higher = more cleavage of the substrate by the protease variant. Particulars: temperature: 34 °C; time window: 0-4 h after rhamnose induction.
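Further: Bxb1 expression induced with 0.2% (w/v) L-rhamnose at OD600 near 0.5, cultures sampled hourly, flipped fraction per protease–substrate barcode pair counted by paired-end Illumina sequencing.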

Consider MGESLFKGPRDYNPISSSICHLTNESDGHTTSLYGIGFGPFIITNKHLFRRNNGTLVVQSLHGVFKVKDTTTLQQHLVDGRDMIIIRMPKDFPPFPQKLKFREPQREERICLVTTNFQTKSMSSMVSDTSCTFPSGDGIFWKHWIQTKDGQCGSPLVSTRDGFIVGIHSASNFTNTNNYFTSVPKNFMELLTNQEAQQWVSGWRLNADSVLWGGHKVFMVKFEEPFQPVKEATQL [P222F], for which the “area with substrate CNLYFQS” value was 0.0678, the “area with substrate DNLYFQS” value was 0.0712, the “area with substrate GNLYFQS” value was 0.0585 and the “area with substrate HNLYFQS” value came out at 0.0622. Moreover, the “area with substrate INLYFQS” value worked out at 0.0616, the “area with substrate KNLYFQS” value is 0.0691, the “area with substrate LNLYFQS” value was 0.0674 and the “area with substrate MNLYFQS” value was determined as 0.0652. The “area with substrate NNLYFQS” value was 0.0562, the “area with substrate PNLYFQS” value was 0.063, the “area with substrate QNLYFQS” value was determined as 0.0474 and the “area with substrate SNLYFQS” value was found to be 0.051. Moreover, the “area with substrate TNLYFQS” value was 0.056, the “area with substrate VNLYFQS” value is 0.058, the “area with substrate WNLYFQS” value was found to be 0.0605 and the “area with substrate YNLYFQS” value was determined as 0.0574.

Turning to MGESLFKGPRDYNPISSSICHLTNESDGHTTSLYGIGFGPFIITNKHLFRRNNGTLVVQSLHGVFKVKDTTTLQQHLVDGRDMIIIRMPKDFPPFPQKLKFREPQREERICLVTTNFQTKSMSSMVSDTSCTFPSGDGIFWKHWIQTKDGQCGSPLVSTRDGFIVGIHSASNFTNTNNYFTSVPKNFMELLTNQEAQQWVSGWRLNADSVLWGGHKVFMVKDEEPFQPVKEATQL [P222D], the “area with substrate CNLYFQS” value stood at 0.0667, the “area with substrate DNLYFQS” value stood at 0.0762, the “area with substrate FNLYFQS” value worked out at 0.0494 and the “area with substrate HNLYFQS” value was 0.0518. Moreover, the “area with substrate INLYFQS” value worked out at 0.0606, the “area with substrate LNLYFQS” value amounted to 0.0643, the “area with substrate MNLYFQS” value turned out to be 0.0711 and the “area with substrate PNLYFQS” value is 0.0524. Moreover, the “area with substrate TNLYFQS” value was 0.0595, the “area with substrate WNLYFQS” value turned out to be 0.0566 and the “area with substrate YNLYFQS” value came to 0.0661.

Regarding MGESLFKGPRDYNPISSSICHLTNESDGHTTSLYGIGFGPFIITNKHLFRRNNGTLVVQSLHGVFKVKDTTTLQQHLVDGRDMIIIRMPKDFPPFPQKLKFREPQREERICLVTTNFQTKSMSSMVSDTSCTFPSGDGIFWKHWIQTKDGQCGSPLVSTRDGFIVGIHSASNFTNTNNYFTSVPKNFMELLTNQEAQQWVSGWRLNADSVLWGGHKVFMVKPEEPFKPVKEATQL [Q227K], the “area with substrate CNLYFQS” value was found to be 0.0524, the “area with substrate DNLYFQS” value was 0.0671, the “area with substrate FNLYFQS” value is 0.0501 and the “area with substrate GNLYFQS” value worked out at 0.0683. Besides, the “area with substrate HNLYFQS” value was found to be 0.0737, the “area with substrate INLYFQS” value amounted to 0.0174, the “area with substrate KNLYFQS” value worked out at 0.0735 and the “area with substrate MNLYFQS” value was found to be 0.0799. Moreover, the “area with substrate NNLYFQS” value is 0.0604, the “area with substrate PNLYFQS” value is 0.0767, the “area with substrate QNLYFQS” value worked out at 0.0707 and the “area with substrate SNLYFQS” value was 0.064. Also, the “area with substrate TNLYFQS” value was 0.0485, the “area with substrate WNLYFQS” value was 0.059 and the “area with substrate YNLYFQS” value is 0.0625.

For MGESLFKGPRDYNPISSSICHLTNESDGHTTSLYGIGFGPFIITNKHLFRRNNGTLVVQSLHGVFKVKDTTTLQQHLVDGRDMIIIRMPKDFPPFPQKLKFREPQREERICLVTTNFQTKSMSSMVSDTSCTFPSGDGIFWKHWIQTKDGQCGSPLVSTRDGFIVGIHSASNFTNTNNYFTSVPKNFMELLTNQEAQQWVSGWRLNADSVLWGGHKVFMVKPEEPFLPVKEATQL [Q227L], the “area with substrate CNLYFQS” value turned out to be 0.0628, the “area with substrate DNLYFQS” value is 0.0934, the “area with substrate FNLYFQS” value turned out to be 0.0674 and the “area with substrate GNLYFQS” value was determined as 0.0717. Besides, the “area with substrate HNLYFQS” value stood at 0.0615, the “area with substrate INLYFQS” value was 0.0564, the “area with substrate KNLYFQS” value is 0.022 and the “area with substrate MNLYFQS” value was found to be 0.0683. For the same variant, the “area with substrate PNLYFQS” value is 0.0651, the “area with substrate SNLYFQS” value worked out at 0.0743, the “area with substrate TNLYFQS” value worked out at 0.0644 and the “area with substrate VNLYFQS” value is 0.0603. The “area with substrate WNLYFQS” value stood at 0.0651 and the “area with substrate YNLYFQS” value came out at 0.0709.

In the case of MGESLFKGPRDYNPISSSICHLTNESDGHTTSLYGIGFGPFIITNKHLFRRNNGTLVVQSLHGVFKVKDTTTLQQHLVDGRDMIIIRMPKDFPPFPQKLKFREPQREERICLVTTNFQTKSMSSMVSDTSCTFPSGDGIFWKHWIQTKDGQCGSPLVSTRDGFIVGIHSASNFTNTNNYFTSVPKNFMELLTNQEAQQWVSGWRLNADSVLWGGHKVFMVKPEEPFVPVKEATQL [Q227V], the “area with substrate CNLYFQS” value came to 0.0753, the “area with substrate DNLYFQS” value came out at 0.0791, the “area with substrate FNLYFQS” value stood at 0.0647 and the “area with substrate GNLYFQS” value came out at 0.0493. For the same variant, the “area with substrate HNLYFQS” value is 0.0662, the “area with substrate KNLYFQS” value stood at 0.0798, the “area with substrate LNLYFQS” value is 0.0698 and the “area with substrate MNLYFQS” value turned out to be 0.06. Also, the “area with substrate PNLYFQS” value stood at 0.0643, the “area with substrate QNLYFQS” value came to 0.0835, the “area with substrate TNLYFQS” value was 0.0658 and the “area with substrate VNLYFQS” value is 0.0608. Further, the “area with substrate WNLYFQS” value worked out at 0.0563.

MGESLFKGPRDYNPISSSICHLTNESDGHTTSLYGIGFGPFIITNKHLFRRNNGTLVVQSLHGVFKVKDTTTLQQHLVDGRDMIIIRMPKDFPPFPQKLKFREPQREERICLVTTNFQTKSMSSMVSDTSCTFPSGDGIFWKHWIQTKDGQCGSPLVSTRDGFIVGIHSASNFTNTNNYFTSVPKNFMELLTNQEAQQWVSGWRLNADSVLWGGHKVFMMKPEEPFQPVKEATQL [V220M]: the “area with substrate CNLYFQS” value was 0.07, the “area with substrate DNLYFQS” value is 0.0736, the “area with substrate HNLYFQS” value was determined as 0.0652 and the “area with substrate INLYFQS” value came out at 0.0633. The “area with substrate KNLYFQS” value stood at 0.0727, the “area with substrate MNLYFQS” value stood at 0.0571, the “area with substrate PNLYFQS” value was 0.0641 and the “area with substrate SNLYFQS” value came to 0.0667. The “area with substrate TNLYFQS” value amounted to 0.0569, the “area with substrate VNLYFQS” value is 0.0826 and the “area with substrate WNLYFQS” value was 0.0578.

In the case of MGESLFKGPRDYNPISSSICHLTNESDGHTTSLYGIGFGPFIITNKHLFRRNNGTLVVQSLHGVFKVKDTTTLQQHLVDGRDMIIIRMPKDFPPFPQKLKFREPQREERICLVTTNFQTKSMSSMVSDTSCTFPSGDGIFWKHWIQTKDGQCGSPLVSTRDGFIVGIHSASNFTNTNNYFTSVPKNFMELLTNQEAQQWVSGWRLNADSVLWGGHKVFMWKPEEPFQPVKEATQL [V220W], the “area with substrate CNLYFQS” value stood at 0.0484, the “area with substrate DNLYFQS” value came out at 0.0709, the “area with substrate GNLYFQS” value amounted to 0.0527 and the “area with substrate HNLYFQS” value was found to be 0.0645. The “area with substrate INLYFQS” value amounted to 0.0535, the “area with substrate KNLYFQS” value turned out to be 0.0583, the “area with substrate LNLYFQS” value was 0.056 and the “area with substrate NNLYFQS” value worked out at 0.0715. For the same variant, the “area with substrate PNLYFQS” value turned out to be 0.0356, the “area with substrate QNLYFQS” value stood at 0.0516, the “area with substrate RNLYFQS” value turned out to be 0.0715 and the “area with substrate SNLYFQS” value came to 0.0448. Besides, the “area with substrate TNLYFQS” value amounted to 0.0665, the “area with substrate VNLYFQS” value is 0.0351, the “area with substrate WNLYFQS” value is 0.0572 and the “area with substrate YNLYFQS” value stood at 0.0665.

MGESLFKGPRDYNPISSSICHLTNESDGHTTSLYGIGFGPFIITNKHLFRRNNGTLVVQSLHGVFKVKDTTTLQQHLVDGRDMIIIRMPKDFPPFPQKLKFREPQREERICLVTTNFQTKSMSSMVSDTSCTFPSGDGIFWKHWIQTKDGQCGSPLVSTRDGFIVGIHSASNFTNTNNYFTSVPKNFMELLTNQEAQQWVSGWRLNADSVLWGGHKVFSVKPEEPFQPVKEATQL [M219S]: the “area with substrate CNLYFQS” value was 0.0592, the “area with substrate DNLYFQS” value worked out at 0.0694, the “area with substrate FNLYFQS” value was determined as 0.0977 and the “area with substrate GNLYFQS” value came out at 0.0693. Besides, the “area with substrate HNLYFQS” value came to 0.0555, the “area with substrate INLYFQS” value stood at 0.0472, the “area with substrate KNLYFQS” value is 0.0617 and the “area with substrate LNLYFQS” value came to 0.0573. Also, the “area with substrate NNLYFQS” value was determined as 0.0492, the “area with substrate PNLYFQS” value amounted to 0.0621, the “area with substrate QNLYFQS” value is 0.0561 and the “area with substrate RNLYFQS” value came to 0.0616. Also, the “area with substrate SNLYFQS” value amounted to 0.0576, the “area with substrate TNLYFQS” value was 0.0598, the “area with substrate WNLYFQS” value was 0.0509 and the “area with substrate YNLYFQS” value worked out at 0.067.

As to MGESLFKGPRDYNPISSSICHLTNESDGHTTSLYGIGFGPFIITNKHLFRRNNGTLVVQSLHGVFKVKDTTTLQQHLVDGRDMIIIRMPKDFPPFPQKLKFREPQREERICLVTTNFQTKSMSSMVSDTSCTFPSGDGIFWKHWIQTKDGQCGSPLVSTRDGFIVGIHSASNFTNTNNYFTSVPKNFMELLTNQEAQQWVSGWRLNADSVLWGGHKVFMVFPEEPFQPVKEATQL [K221F], the “area with substrate CNLYFQS” value is 0.055, the “area with substrate DNLYFQS” value turned out to be 0.0603, the “area with substrate GNLYFQS” value worked out at 0.0428 and the “area with substrate HNLYFQS” value came out at 0.059. For the same variant, the “area with substrate INLYFQS” value was found to be 0.062, the “area with substrate KNLYFQS” value worked out at 0.06, the “area with substrate MNLYFQS” value is 0.0715 and the “area with substrate NNLYFQS” value was 0.0773. The “area with substrate PNLYFQS” value was found to be 0.0607, the “area with substrate QNLYFQS” value was 0.0589, the “area with substrate SNLYFQS” value came out at 0.0515 and the “area with substrate TNLYFQS” value was 0.06. Moreover, the “area with substrate VNLYFQS” value stood at 0.0561, the “area with substrate WNLYFQS” value came out at 0.0563 and the “area with substrate YNLYFQS” value came to 0.043.
